Test results as given in the supplement of paper PMC4604168 (melanoma cell lines).
Some of the results follow. Most values come without repeats; read them as rough.

test system: SkMel28; assay: cell count relative to DMSO control; melanoma cells; higher = more viable cells; conditions: library dose: standard library concentration; 72 h
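Note: cells treated in 1,536-well plates, then fixed and DAPI-stained, with nuclei counted from automated high-throughput microscope images.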

Compound	cell count [%]
O=C(/C=C/c1cccnc1)NCCCCC1CCN(C(=O)c2ccccc2)CC1 + O=C(Nc1ccccc1)c1cc([N+](=O)[O-])ccc1Cl [GW9662] (first compound 0.05 µM, partner dose 10 µM)	50.1
CC1(C)CCC(c2ccc(Cl)cc2)=C(CN2CCN(c3ccc(C(=O)NS(=O)(=O)c4ccc(N[C@H](CCN5CCOCC5)CSc5ccccc5)c(S(=O)(=O)C(F)(F)F)c4)cc3)CC2)C1 + N#Cc1c(O)c2c(-c3ccc(-c4ccccc4O)cc3)csc2[nH]c1=O [A769662] (first compound 2 µM, partner dose 10 µM)	98.9
CC1(C)CCC(c2ccc(Cl)cc2)=C(CN2CCN(c3ccc(C(=O)NS(=O)(=O)c4ccc(N[C@H](CCN5CCOCC5)CSc5ccccc5)c(S(=O)(=O)C(F)(F)F)c4)cc3)CC2)C1 + COc1cc2ncnc(Nc3ccc(Oc4ccccc4)cc3)c2cc1OC [SrcI1] (first compound 2 µM, partner dose 10 µM)	52.8
O=C(/C=C/c1cccnc1)NCCCCC1CCN(C(=O)c2ccccc2)CC1 + N#Cc1c(O)c2c(-c3ccc(-c4ccccc4O)cc3)csc2[nH]c1=O [A769662] (first compound 0.05 µM, partner dose 10 µM)	65.4
CC1(C)CCC(c2ccc(Cl)cc2)=C(CN2CCN(c3ccc(C(=O)NS(=O)(=O)c4ccc(N[C@H](CCN5CCOCC5)CSc5ccccc5)c(S(=O)(=O)C(F)(F)F)c4)cc3)CC2)C1 + O=S(=O)(c1ccccc1)N(CC(F)(F)F)c1ccc(C(O)(C(F)(F)F)C(F)(F)F)cc1 [T0901317] (first compound 2 µM, partner dose 7 µM)	74.1
O=C(/C=C/c1cccnc1)NCCCCC1CCN(C(=O)c2ccccc2)CC1 + CC(C)CCN1c2nc(Nc3cc(F)c(O)c(F)c3)ncc2N(C)C(=O)C1C [BID1870] (first compound 0.05 µM, partner dose 1 µM)	56.6
O=C(/C=C/c1cccnc1)NCCCCC1CCN(C(=O)c2ccccc2)CC1 + Cc1cc([N+](=O)[O-])ccc1NS(=O)(=O)c1cc(Cl)ccc1Cl [FH535] (first compound 0.05 µM, partner dose 5 µM)	65.4
Cc1ccc(Nc2nccc(N(C)c3ccc4c(C)n(C)nc4c3)n2)cc1S(N)(=O)=O [Pazopanib] + O=C(Nc1ccccc1)c1cc([N+](=O)[O-])ccc1Cl [GW9662] (first compound 2 µM, partner dose 10 µM)	63.8
Cc1ccc(Nc2nccc(N(C)c3ccc4c(C)n(C)nc4c3)n2)cc1S(N)(=O)=O [Pazopanib] + COc1ccc(COc2ccc(Cc3cnc(N)nc3N)cc2OC)cc1 [GW2580] (first compound 2 µM, partner dose 5 µM)	76.7

test system: SkMel2; assay: as above; conditions: library dose: standard library concentration; 72 h

Compound	cell count [%]
Cc1ccc(Nc2nccc(N(C)c3ccc4c(C)n(C)nc4c3)n2)cc1S(N)(=O)=O [Pazopanib] + CCc1ccc(CCOc2ccc(CC3SC(=O)NC3=O)cc2)nc1 [pioglitazone] (first compound 2 µM, partner dose 10 µM)	112
O=C(/C=C/c1cccnc1)NCCCCC1CCN(C(=O)c2ccccc2)CC1 + O=C1NC(=O)/C(=C/c2ccc(-c3ccc(F)cc3O)o2)S1 [AS252424] (first compound 0.05 µM, partner dose 5 µM)	14.7
O=C(/C=C/c1cccnc1)NCCCCC1CCN(C(=O)c2ccccc2)CC1 + COc1ccc2c(c1)CCC1C2CCC2(C)C(NCCCCCCN3C(=O)C=CC3=O)CCC12 [U73122] (first compound 0.05 µM, partner dose 2 µM)	24.1
CC1(C)CCC(c2ccc(Cl)cc2)=C(CN2CCN(c3ccc(C(=O)NS(=O)(=O)c4ccc(N[C@H](CCN5CCOCC5)CSc5ccccc5)c(S(=O)(=O)C(F)(F)F)c4)cc3)CC2)C1 + O=C1NC(=O)/C(=C/c2ccc(-c3ccc(F)cc3O)o2)S1 [AS252424] (first compound 2 µM, partner dose 5 µM)	62.6
Cc1ccc(Nc2nccc(N(C)c3ccc4c(C)n(C)nc4c3)n2)cc1S(N)(=O)=O [Pazopanib] + Oc1cc(-c2nc(-c3ccccc3)[nH]c2-c2ccncc2)ccc1Cl [L779450] (first compound 2 µM, partner dose 1 µM)	24.4
Cc1ccc(Nc2nccc(N(C)c3ccc4c(C)n(C)nc4c3)n2)cc1S(N)(=O)=O [Pazopanib] + O=C1NC(=O)/C(=C/c2ccc(-c3ccc(F)cc3O)o2)S1 [AS252424] (first compound 2 µM, partner dose 5 µM)	92.8
O=C(/C=C/c1cccnc1)NCCCCC1CCN(C(=O)c2ccccc2)CC1 + O=c1cc(-c2cccc3c2Sc2ccccc2S3)oc(N2CCOCC2)c1 [KU55933] (first compound 0.05 µM, partner dose 5 µM)	25.7
Cc1ccc(Nc2nccc(N(C)c3ccc4c(C)n(C)nc4c3)n2)cc1S(N)(=O)=O [Pazopanib] + N#Cc1c(O)c2c(-c3ccc(-c4ccccc4O)cc3)csc2[nH]c1=O [A769662] (first compound 2 µM, partner dose 10 µM)	116
O=C(/C=C/c1cccnc1)NCCCCC1CCN(C(=O)c2ccccc2)CC1 + Oc1cc(-c2nc(-c3ccccc3)[nH]c2-c2ccncc2)ccc1Cl [L779450] (first compound 0.05 µM, partner dose 1 µM)	25.4
CC1(C)CCC(c2ccc(Cl)cc2)=C(CN2CCN(c3ccc(C(=O)NS(=O)(=O)c4ccc(N[C@H](CCN5CCOCC5)CSc5ccccc5)c(S(=O)(=O)C(F)(F)F)c4)cc3)CC2)C1 + O=C(Nc1ccccc1)c1cc([N+](=O)[O-])ccc1Cl [GW9662] (first compound 2 µM, partner dose 10 µM)	73
CC1(C)CCC(c2ccc(Cl)cc2)=C(CN2CCN(c3ccc(C(=O)NS(=O)(=O)c4ccc(N[C@H](CCN5CCOCC5)CSc5ccccc5)c(S(=O)(=O)C(F)(F)F)c4)cc3)CC2)C1 + Nc1nc(F)nc2c1ncn2[C@@H]1O[C@H](CO)[C@@H](O)[C@@H]1O [fludarabine] (first compound 2 µM, partner dose 1 µM)	0.3
CC1(C)CCC(c2ccc(Cl)cc2)=C(CN2CCN(c3ccc(C(=O)NS(=O)(=O)c4ccc(N[C@H](CCN5CCOCC5)CSc5ccccc5)c(S(=O)(=O)C(F)(F)F)c4)cc3)CC2)C1 + CC(C)CCN1c2nc(Nc3cc(F)c(O)c(F)c3)ncc2N(C)C(=O)C1C [BID1870] (first compound 2 µM, partner dose 1 µM)	56.8
Cc1ccc(Nc2nccc(N(C)c3ccc4c(C)n(C)nc4c3)n2)cc1S(N)(=O)=O [Pazopanib] + COc1ccc2c(c1)CCC1C2CCC2(C)C(NCCCCCCN3C(=O)C=CC3=O)CCC12 [U73122] (first compound 2 µM, partner dose 2 µM)	101
CC1(C)CCC(c2ccc(Cl)cc2)=C(CN2CCN(c3ccc(C(=O)NS(=O)(=O)c4ccc(N[C@H](CCN5CCOCC5)CSc5ccccc5)c(S(=O)(=O)C(F)(F)F)c4)cc3)CC2)C1 + COc1ccc(-c2ccc3c(N4CCOCC4)nc(N4C[C@@H](C)O[C@@H](C)C4)nc3n2)cc1CO [KU0063794] (first compound 2 µM, partner dose 0.1 µM)	65.7
CC1(C)CCC(c2ccc(Cl)cc2)=C(CN2CCN(c3ccc(C(=O)NS(=O)(=O)c4ccc(N[C@H](CCN5CCOCC5)CSc5ccccc5)c(S(=O)(=O)C(F)(F)F)c4)cc3)CC2)C1 + CCN(CC)CCCCNc1ncc2cc(-c3cc(OC)cc(OC)c3)c(NC(=O)NC(C)(C)C)nc2n1 [PD173074] (first compound 2 µM, partner dose 0.5 µM)	73.6
CC1(C)CCC(c2ccc(Cl)cc2)=C(CN2CCN(c3ccc(C(=O)NS(=O)(=O)c4ccc(N[C@H](CCN5CCOCC5)CSc5ccccc5)c(S(=O)(=O)C(F)(F)F)c4)cc3)CC2)C1 + Oc1cc(-c2nc(-c3ccccc3)[nH]c2-c2ccncc2)ccc1Cl [L779450] (first compound 2 µM, partner dose 1 µM)	8.57
CC1(C)CCC(c2ccc(Cl)cc2)=C(CN2CCN(c3ccc(C(=O)NS(=O)(=O)c4ccc(N[C@H](CCN5CCOCC5)CSc5ccccc5)c(S(=O)(=O)C(F)(F)F)c4)cc3)CC2)C1 + O=c1cc(-c2cccc3c2Sc2ccccc2S3)oc(N2CCOCC2)c1 [KU55933] (first compound 2 µM, partner dose 5 µM)	61
O=C(/C=C/c1cccnc1)NCCCCC1CCN(C(=O)c2ccccc2)CC1 + c1cc(-c2cnn3cc(-c4ccc(OCCN5CCCCC5)cc4)cnc23)ccn1 [Dorsomorphin] (first compound 0.05 µM, partner dose 2 µM)	26.3
Cc1ccc(Nc2nccc(N(C)c3ccc4c(C)n(C)nc4c3)n2)cc1S(N)(=O)=O [Pazopanib] + O=C(O)C(=O)Nc1sc2c(c1C(=O)O)CCNC2 [TCS401] (first compound 2 µM, partner dose 8.33333 µM)	106
Cc1ccc(Nc2nccc(N(C)c3ccc4c(C)n(C)nc4c3)n2)cc1S(N)(=O)=O [Pazopanib] + COc1ccc(-c2ccc3c(N4CCOCC4)nc(N4C[C@@H](C)O[C@@H](C)C4)nc3n2)cc1CO [KU0063794] (first compound 2 µM, partner dose 0.1 µM)	72.4
